# Hit rate of the full screen: of about 370,000 compounds, about 150 (0.041%) were called active. Inconclusive results, whose numbers are uncertain, are shown with a selection of clear calls. Calls follow the shape of the dose curve; as a rule, active = well fitted inhibition curve with a large enough effect; inconclusive = small, poorly fitted or top-dose-only effect; inactive = flat fitted curve, though single readings scatter. No potency is given beside an inconclusive call; the fits are too rough.
# Target: Beta-lactamase (Escherichia coli (strain K12)) (UniProt P00811)
# Chain of UniProt P00811 (P00811 whole entry, looked up): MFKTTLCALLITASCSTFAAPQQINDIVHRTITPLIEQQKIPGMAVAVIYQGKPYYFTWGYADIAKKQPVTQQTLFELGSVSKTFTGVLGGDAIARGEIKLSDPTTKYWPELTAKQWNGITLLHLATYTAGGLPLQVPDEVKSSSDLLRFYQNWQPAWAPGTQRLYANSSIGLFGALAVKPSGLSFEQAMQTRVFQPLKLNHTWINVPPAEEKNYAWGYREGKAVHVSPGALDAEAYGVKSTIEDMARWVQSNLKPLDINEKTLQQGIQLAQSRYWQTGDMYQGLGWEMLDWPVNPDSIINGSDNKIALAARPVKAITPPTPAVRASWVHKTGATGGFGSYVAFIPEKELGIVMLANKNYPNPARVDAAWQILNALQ
# Assay: qHTS Inhibitors of AmpC Beta-Lactamase (assay with detergent); also: nearly all actives have a fitted effect of over 25% in size;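 as to activity change, negative = inhibition: 0% = no-compound wells and -100% = no-enzyme wells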
# Settings: AmpC hydrolysis of nitrocefin, absorbance 480 nm, 0.01% Triton; activity change, negative = inhibition: at 114 µM (top of the series)
# How it was run: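 20 mM phosphate pH 7.0 + 0.01% (detergent screen) or 0.0001% Triton X-100; 5.3 nM AmpC reagent; cpd preinc 15 min RT; nitrocefin (800 uM stock) to start; A480 q20 s × 4 min; Activity was normalised to no-enzyme and no-compound control wells.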
# Potency is read from the fitted curve at half-maximal effect; tags tell the direction and shape of the fitted curve.
Structure (SMILES),Potency,"activity change, negative = inhibition"
CCc1nnc(NC(=O)CSc2nnc(-c3ccc(NS(=O)(=O)c4ccccc4)cc3)o2)s1,"inconclusive [inhibitor, full curve, poor fit]",
Clc1ccc(-c2nc(Cc3ccccc3)no2)cc1,,inactive: -6.18%
Cc1ccc(S(=O)(=O)N(C)CC(=O)Nc2ccc3c(c2)OCO3)cc1,"inconclusive [inhibitor, full curve, poor fit]",
N#Cc1c(-c2ccccc2Cl)cc(C2CC2)nc1N,"inconclusive [inhibitor, full curve, poor fit]",
Cc1ccc(Nc2ccc(-n3ccnc3)nn2)cc1C,"inconclusive [inhibitor, full curve, poor fit]",
CCc1ccc(N2CC(C(=O)Nc3ccc4c(c3)OCO4)CC2=O)cc1 (configuration not stated),"inconclusive [inhibitor, single point]",
CCn1c(=NC(=O)CSC(C)=O)sc2cc(OC)ccc21,"inconclusive [inhibitor, full curve]",
OC(COCc1ccccc1)CN1CCN(Cc2ccc3c(c2)OCO3)CC1 (configuration not stated),,inactive: -4.13%
O=C(Nc1ccc(Cl)cc1)c1cc2c(cc1O)[nH]c1ccccc12,"inconclusive [inhibitor, partial curve, poor fit]",
O=C(NNC(=O)c1cccc(-n2cccc2)c1)c1ccc(F)cc1,"inconclusive [inhibitor, full curve, poor fit]",
Cc1ccc(NC(=O)Cn2nc(N3CCN(c4ccccc4)CC3)ccc2=O)cc1F,"inconclusive [inhibitor, single point]",
C#CCOCCOCCOCCNc1nc(N2CCN(C(=O)[C@H]([C@@H](C)CC)n3cc([C@@H](N)CC(C)C)nn3)CC2)nc(N2CCN(C(=O)[C@H](Cc3cc4ccccc4[nH]3)n3cc([C@@H](N)C(C)CC)nn3)CC2)n1 (some centres not stated),,inactive: -4.08%
Cc1c(C(=O)N(C)C)sc2c1c(=O)n(-c1ccc(Cl)cc1)c(=O)n2CC(=O)C(C)(C)C,,inactive: 12.3%
CCCCOc1ccc(Br)cc1/C(C)=N/NC1=NCCN1,,inactive: 2.59%
Cc1ccc(/C=C(\NC(=O)c2ccccc2)C(=O)N2CCCC2C(=O)O)cc1 (configuration not stated),"inconclusive [inhibitor, full curve, poor fit]",
CCCOc1ccc(N2CC(C(=O)Nc3ccccn3)CC2=O)cc1 (configuration not stated),"inconclusive [inhibitor, partial curve, poor fit]",
Cc1nn(-c2ccccc2)c2c1C(c1ccncc1)C(C#N)=C(N)O2 (configuration not stated),"inconclusive [inhibitor, partial curve, poor fit]",

# — PubChem BioAssay AID485294 (National Center for Advancing Translational Sciences (NCATS), 2010)
